In PubChem BioAssay AID588795 (National Center for Advancing Translational Sciences (NCATS), 2011):
About 1,400 (0.36%) of roughly 390,000 compounds were called active. The inconclusive results got no clear call from the source; some entries with a clear call stand among them for comparison. The call rests on the fitted dose curve; in most records, active means well fitted inhibition curve with a large enough effect; inconclusive means small, poorly fitted or top-dose-only effect; inactive means no such curve, though single readings can be large or run the other way. Potencies beside an inconclusive call are fits to weak or partial responses and may not hold up.

molecular target: Flap endonuclease 1 (Homo sapiens) (UniProt P39748); assay: qHTS Assay for the Inhibitors of Human Flap endonuclease 1 (FEN1).; further: nearly all actives have a fitted effect of over 65% in size; conditions: Recombinant FEN1 flap cleavage, fluorescence, 15 min; series mostly up to 114 µM
Sequence of UniProt P39748 (P39748 whole entry, looked up): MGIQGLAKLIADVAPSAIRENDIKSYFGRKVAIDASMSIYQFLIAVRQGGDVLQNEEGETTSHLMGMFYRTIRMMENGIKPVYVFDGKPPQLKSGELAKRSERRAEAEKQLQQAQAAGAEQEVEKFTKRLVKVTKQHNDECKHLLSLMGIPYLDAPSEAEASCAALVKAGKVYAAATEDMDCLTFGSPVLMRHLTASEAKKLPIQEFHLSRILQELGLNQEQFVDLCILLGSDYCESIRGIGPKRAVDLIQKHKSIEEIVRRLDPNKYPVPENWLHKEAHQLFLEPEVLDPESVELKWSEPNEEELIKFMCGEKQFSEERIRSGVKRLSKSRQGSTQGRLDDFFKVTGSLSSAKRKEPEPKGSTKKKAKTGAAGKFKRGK
Procedure, shortened: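 FEN1 at 10 nM, compound pretreatment for 15 min (room temperature), 50 nM final substrate to initiate; endpoint reads at 0 and 15 min; DMSO-only plates used as vehicle background.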
Potency means the concentration at half of the fitted maximal effect; tags describe the fitted curve by direction and shape.

| Compound | Potency |
| --- | --- |
| CC(C(=O)c1ccccc1)[n+]1cccc(Cl)c1 (stereo not given) | inactive |
| O=c1cc(O)c2c(=O)n(Cc3ccccc3)c3ccccc3c2o1 | inconclusive: 35.5 µM [inhibitor, partial curve] |
| O=c1c2ccccc2nc(N/N=C/c2ccccc2)n1O | inconclusive: 63.1 µM [inhibitor, partial curve, poor fit] |
| CCn1c(C)nc2cc(C(=O)N/N=C/c3ccc(O)c(O)c3O)ccc21 | inconclusive: 50.1 µM [inhibitor, partial curve, poor fit] |
| O=[N+]([O-])c1ccc(/C=N\NS(=O)(=O)c2ccc(F)cc2)o1 | inconclusive: 44.7 µM [inhibitor, partial curve] |
| COc1ccc(-c2oc(=O)c3cc(OC)c(OC)cc3c2C#CC2(O)CCCCC2)cc1 | inactive |
| C#CCOCCOCCOCCNc1nc(N2CCN(C(=O)CCCCCCCCCCNC(=O)[C@H](CCCCN)n3cc(CCO)nn3)CC2)nc(N2CCN(C(=O)CCCCCCCCCCNC(=O)[C@H](CCCN=C(N)N)n3cc(C[C@@H](C)CC)nn3)CC2)n1 | active: 22.4 µM |
| COc1ccccc1NC(=O)C1CCCN(c2ncnc3onc(-c4ccc(F)cc4)c23)C1 (stereo not given) | inactive |
| Cc1nc(S/C(=C\c2ccc(-c3ccc(C(=O)O)c(Cl)c3)o2)C(=O)O)n[nH]1 | inconclusive: 15.8 µM [inhibitor, full curve, poor fit] |
| COc1cc(O)cc2cc3c(c(O)c12)C(=O)CC(C)(O)O3 (stereo not given) | inconclusive: 11.2 µM [inhibitor, full curve, poor fit] |
| Cc1ccnc(Nc2nc(-c3ccc(O)c(O)c3)cs2)c1 | inconclusive: 50.1 µM [inhibitor, partial curve, poor fit] |
| CC(C)CSC1=NSC2=NC(=O)/C(=C\c3coc4ccccc4c3=O)C(=N)N12 | inconclusive: 50.1 µM [inhibitor, partial curve] |
| Cc1nn2c(=O)cc(COC(=O)c3cccc(NC(=O)c4ccc(F)cc4)c3)nc2s1 | inactive |
| CCC(=O)c1ccc(OCC(=O)N2CCCC2)c(OC)c1 | inactive |
| O=C(/C=C/c1ccc(S(=O)(=O)N2CCOCC2)cc1)Nc1cc(F)ccc1F | inconclusive: 79.4 µM [inhibitor, partial curve, poor fit] |
| Cc1cc(C)c(OCCOCCn2c(-c3ccc(Cl)cc3)nc3ccccc3c2=O)c(C)c1 | inactive |
| CC(=O)Nc1cccc(N/C(N)=N/c2nc(C)cc(C)n2)c1 | inconclusive: 31.6 µM [inhibitor, partial curve, poor fit] |
| COC(=O)CC(=O)CSc1nc2cc(C(=O)NCC(C)C)ccc2c(=O)n1CCc1ccccc1 | inactive |
| O=C(CSc1nc(-c2ccccc2)nc2ccccc12)Nc1nccs1 | inconclusive: 100 µM [inhibitor, single point] |
| COc1ccc2c(c1)[nH]c1c(=O)n(/N=C/c3ccc(OC)c(CN4CCCC4)c3)cnc12 | inconclusive: 89.1 µM [inhibitor, single point] |
| CS(=O)(=O)N(Cc1ccccc1)c1ccc(C(=O)Nc2ccc(Cl)cc2)cc1 | inactive |
| Cc1ccc(-c2cc(C(=O)N/N=C/c3ccccc3O)n[nH]2)o1 | inactive |

| Compound | Potency |
| --- | --- |
| Cc1cccc(OCCCn2c(CCNC(=O)C3CCCCC3)nc3ccccc32)c1 | inconclusive: 79.4 µM [inhibitor, partial curve, poor fit] |
| CCOCCCNC(=O)C(c1ccc(OC)cc1)N(Cc1ccc2c(c1)OCO2)C(=O)c1cnccn1 (stereo not given) | inconclusive: 25.1 µM [inhibitor, single point] |
| CCOc1cc(/C=C2\N=C(SCC)SC2=O)cc([N+](=O)[O-])c1OC(C)=O | inconclusive: 50.1 µM [inhibitor, partial curve] |
| O=C(CN1C(=O)/C(=C2\SC(=S)N(CCS(=O)(=O)O)C2=O)c2ccccc21)Nc1cccc(Br)c1 | inconclusive: 63.1 µM [inhibitor, partial curve, poor fit] |
| CCc1nn(CC(=O)NCCCc2ccccc2)c(=O)c2cc3ccccc3n12 | inactive |
| CC(=O)N1CCc2c(sc3c2c(=O)n(-c2ccc(C)cc2)c(=O)n3Cc2ccccc2C)C1 | inactive |
| COc1ccc(/C=C/c2sc3ccccc3[n+]2CCCCI)cc1OC | inactive |
| CN1CC(=O)N=C1N | inconclusive: 100 µM [inhibitor, single point] |
| CCCCCCCCNCCS(=O)(=O)NCc1ccccc1 | inconclusive: 70.8 µM [inhibitor, partial curve, poor fit] |
| Cc1ccc2[nH]c(=O)c3cc(C(=O)NCCCN4CCC(C)CC4)sc3c2c1 | inconclusive: 79.4 µM [inhibitor, partial curve] |
| Cc1cccc(S(=O)(=O)c2c(N)n(Cc3ccco3)c3nc4ccccc4nc23)c1 | inactive |
| CCOC(=O)C(Cc1c[nH]c2ccccc12)NC(=O)COc1ccc(CC)cc1 (stereo not given) | inconclusive: 44.7 µM [inhibitor, partial curve, poor fit] |
| COc1ccc(C(=O)Nc2nc(-c3nnn(-c4ccc(C(C)C)cc4)c3C)ns2)cc1 | inconclusive: 89.1 µM [inhibitor, partial curve, poor fit] |
| CCOC(=O)C1=C(CSc2nc(-c3ccccc3)ccc2C#N)OC(N)=C(C#N)C1c1ccccc1 (stereo not given) | inconclusive: 44.7 µM [inhibitor, partial curve, poor fit] |
| CC(=O)NN1C(=O)/C(=C\c2ccc(O)cc2)SC1=S | inactive |
| COCCCn1c(C(=O)Nc2ccc3c(c2)OCO3)cc2c(=O)n3ccccc3nc21 | inconclusive: 89.1 µM [inhibitor, single point] |
| O=C(Nc1nc2ccc(SC(F)F)cc2s1)c1ccc(NS(=O)(=O)c2ccc(F)c(F)c2)cc1 | inconclusive: 79.4 µM [inhibitor, partial curve, poor fit] |
| CN1\C(=C/C=C/C=C/C=[N+](C)C)C(C)(C)c2ccccc21 | active: 89.1 µM |
| COc1ccc(S(=O)(=O)C(C#N)c2nc3ccccc3nc2N2CCCC(C)C2)cc1 (stereo not given) | inconclusive: 56.2 µM [inhibitor, partial curve, poor fit] |
| Cc1ccc2nc3c(c(N)c2c1)CCN3C | inconclusive: 79.4 µM [inhibitor, single point] |
| COc1ccc(N2CC(NC(=O)c3ccc(S(=O)(=O)N4CCCCC4)cc3)CC2=O)cc1 (stereo not given) | inactive |
| COc1ccc(OC)c(S(=O)(=O)Nc2cccc(-c3ccc(N4CCCCC4)nn3)c2)c1 | inconclusive: 89.1 µM [inhibitor, single point] |

| Compound | Potency |
| --- | --- |
| Cn1c(=O)c2c(nc(NN=C3CCCC3)n2C)n(C)c1=O | inconclusive: 28.2 µM [inhibitor, partial curve, poor fit] |
| Oc1ccccc1-c1nc(NCc2cccnc2)c2ccccc2n1 | inconclusive: 39.8 µM [inhibitor, partial curve, poor fit] |
| O=c1nc2c(O)cccn2c2c1c(=O)[nH]c1ccccc12 | active: 56.2 µM |
| O=C(CSc1nc2ccccc2n1Cc1ccccc1)N/N=C/c1ccco1 | inactive |
| CCN(c1ccccc1)S(=O)(=O)c1c(-c2ccc(C)cc2)csc1C(=O)OC | inconclusive: 89.1 µM [inhibitor, single point] |
| COc1ccc(-c2nc(C#N)c(N3CCCCCC3)o2)cc1OC | inconclusive: 31.6 µM [inhibitor, partial curve, poor fit] |
| CCCN1Cc2cccc(C(=O)Nc3cccc(C(=O)OCC)c3)c2C1=O | inactive |
| O=C1OC(c2ccccc2)/C(=C(/O)c2ccccc2)C1=O (stereo not given) | inconclusive: 89.1 µM [inhibitor, partial curve, poor fit] |
| CCCCC(=O)OCc1c(-c2ccccc2)ncc2ccccc12 | inconclusive: 89.1 µM [inhibitor, partial curve, poor fit] |
| CCN(CC(=O)Nc1ccccc1C(F)(F)F)C(=O)c1cc2c(s1)CCCCC2 | inactive |
| Cc1cc(S(=O)(=O)NC(C)c2nnc3ccccn23)ccc1Br (stereo not given) | inactive |
| C=C(C)C(=O)Nc1cccc(C2=NOC3(C2)C[C@@H](C(N)=O)N(C(=O)c2ccc(Cl)cc2)C3)c1 (stereo not given in full) | inconclusive: 50.1 µM [inhibitor, partial curve, poor fit] |
| COc1ccc(OC)c(Nc2sc(C(=O)c3ccccc3)c(N)c2S(=O)(=O)c2ccccc2)c1 | inactive |
| Cc1cc(C)c(S(=O)(=O)c2ccc(F)cc2C)c(Cl)n1 | inactive |
| C[C@]1(C(=O)NCCCNc2ncc(C(F)(F)F)cc2Cl)C=C[C@@H](Cc2ccccc2)N1C(=O)c1ccccc1 | inconclusive: 56.2 µM [inhibitor, partial curve, poor fit] |
| COc1ccccc1-c1nc(C(=O)NCC2CCCO2)cc2c1[nH]c1ccccc12 (stereo not given) | inconclusive: 50.1 µM [inhibitor, partial curve, poor fit] |
| CC(C)CC1=NN2C(=N)/C(=C\c3coc4ccccc4c3=O)C(=O)N=C2S1 | active: 31.6 µM |
| COc1ccc(Br)cc1[C@@H]1Nc2ccc(C(=O)O)cc2[C@@H]2C=CC[C@@H]21 | inconclusive: 56.2 µM [inhibitor, partial curve, poor fit] |
| CCC1Sc2ccc(S(=O)(=O)N3CCN(c4ccccc4)CC3)cc2NC1=O (stereo not given) | inconclusive: 89.1 µM [inhibitor, partial curve, poor fit] |
| CC(=O)N1CCc2cc(Br)cc(S(=O)(=O)N3CCC(C(=O)Nc4ccc(C(C)C)cc4)CC3)c21 | active: 89.1 µM |
| COc1ccc(C(=O)CC2(O)C(=O)N(Cc3cccc(C(F)(F)F)c3)c3ccccc32)cc1 (stereo not given) | inconclusive: 44.7 µM [inhibitor, partial curve, poor fit] |
